About 2,200 (0.71%) of roughly 310,000 compounds showed an effect of 50% or more. Effects have a minus sign here. The list shows a part of the results.
molecular target: human ether-à-go-go-related gene (hERG) potassium channel (human, UniProt Q12809); assay: primary screen, population patch clamp on CHO cells stably expressing hERG
Sequence (Q12809 whole entry, looked up): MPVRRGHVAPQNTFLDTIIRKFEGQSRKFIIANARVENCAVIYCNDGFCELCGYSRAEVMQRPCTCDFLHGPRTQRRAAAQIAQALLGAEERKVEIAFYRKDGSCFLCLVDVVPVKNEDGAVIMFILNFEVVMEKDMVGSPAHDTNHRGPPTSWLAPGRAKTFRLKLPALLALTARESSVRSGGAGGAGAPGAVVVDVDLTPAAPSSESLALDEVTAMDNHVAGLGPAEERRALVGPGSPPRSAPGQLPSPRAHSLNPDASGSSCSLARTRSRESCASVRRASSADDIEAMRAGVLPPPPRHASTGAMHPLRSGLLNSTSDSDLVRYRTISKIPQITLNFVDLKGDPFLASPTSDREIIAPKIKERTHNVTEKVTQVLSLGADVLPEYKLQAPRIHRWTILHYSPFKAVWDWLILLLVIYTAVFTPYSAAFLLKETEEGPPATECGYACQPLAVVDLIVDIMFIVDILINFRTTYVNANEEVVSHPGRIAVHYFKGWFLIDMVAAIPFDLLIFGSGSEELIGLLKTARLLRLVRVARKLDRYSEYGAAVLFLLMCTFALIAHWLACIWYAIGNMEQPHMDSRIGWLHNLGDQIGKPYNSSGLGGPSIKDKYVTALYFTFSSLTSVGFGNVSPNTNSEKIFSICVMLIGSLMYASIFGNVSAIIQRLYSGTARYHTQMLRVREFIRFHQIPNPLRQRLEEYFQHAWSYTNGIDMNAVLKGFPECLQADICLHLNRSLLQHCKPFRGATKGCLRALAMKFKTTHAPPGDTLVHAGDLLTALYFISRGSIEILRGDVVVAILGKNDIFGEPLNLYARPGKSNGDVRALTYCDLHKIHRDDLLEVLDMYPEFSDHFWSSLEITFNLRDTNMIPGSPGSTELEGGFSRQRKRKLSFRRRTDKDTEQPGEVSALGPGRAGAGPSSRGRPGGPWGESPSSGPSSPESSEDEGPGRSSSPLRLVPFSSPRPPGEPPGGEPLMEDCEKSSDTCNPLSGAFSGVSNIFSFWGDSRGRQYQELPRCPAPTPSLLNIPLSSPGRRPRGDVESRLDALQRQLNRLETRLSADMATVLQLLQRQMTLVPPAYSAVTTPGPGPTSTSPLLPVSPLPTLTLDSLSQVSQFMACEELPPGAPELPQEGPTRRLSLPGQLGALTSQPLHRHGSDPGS

| Compound | hERG current change (%, negative = inhibition) at 1uM [%] |
| --- | --- |
| CC(=O)c1cccc(NC(=S)NC(=O)c2ccccc2)c1 | 13.1 |
| CCSc1nnc(NC(=O)NC(C)(C(F)(F)F)C(F)(F)F)s1 | -3.35 |
| Cn1nc(C(C)(C)C)cc1C(=O)NN1CCOCC1 | 15.4 |
| COc1ccc2c(c1)N(C(=O)CSc1n[nH]c(C)n1)C(C)(C)C=C2C | 2.52 |
| O=C(CN1CCN(c2cccc(Cl)c2)CC1)Nc1ccc(S(=O)(=O)N2CCOCC2)cc1 | 13.9 |
| CCOc1ccc(NC(=S)NC2CC3CCC(C2)N3Cc2ccco2)cc1 (stereo not drawn) | -10.1 |
| CN1C(=O)C(Cc2ccsc2)C(=O)N(C)C1=O | 2.79 |
| COc1ccc(N2CCN(Cc3cc4c(cc3O)CCC4)CC2)cc1 | 8.84 |
| CC1CCN(CC(O)COc2ccc(C(=O)c3ccccc3)cc2)CC1 (stereo not drawn) | -20.2 |
| COc1ccccc1NC(=O)NNC(=O)c1ccc2c(c1)NC(=O)C(C)(C)O2 | 15.7 |
| COc1ccccc1NC(=O)NC(N)=O | 7 |
| COc1ccc(N2CCN(C(=O)C(=O)c3c(C)[nH]c4ccccc34)CC2)cc1 | 13.3 |
| NC(N)=NS(=O)(=O)c1ccc(NC(=S)NC(=O)/C=C/c2ccc(F)cc2)cc1 | 9.08 |
| CCO[C@H]1OC(C(=O)N2CCCCCCC2)=C[C@@H](c2csc3ccccc23)[C@@H]1CCCO | 5.32 |
| CC(C)COC(=O)N1CCCC1C(=O)O (stereo not drawn) | 3.26 |
| COCCn1c(SCC(=O)c2c(-c3ccccc3)n(C)c3ccccc23)nnc1-c1ccncc1 | 7.61 |
| Clc1ccccc1NC1=NCCCS1 | 13.8 |
| COc1ccc(CCNC(=O)Cc2ccc(C)cc2)cc1OC | 15.5 |
| Cc1ccc(C)n1C1CCS(=O)(=O)C1 (stereo not drawn) | 13.9 |
| N#Cc1ncccc1CCc1cccc(Cl)c1 | 11.4 |
| O=C(CN1CCOCC1)NN=C(c1ccccc1)c1ccccc1 | 15.9 |
| Cc1cccc(C)c1NC(=O)C(=O)NCCc1c[nH]c2ccccc12 | 13.3 |
| Cc1cc2nc3c(nc2cc1C)C(O)=C3O | 11.4 |

| Compound | hERG current change (%, negative = inhibition) at 1uM [%] |
| --- | --- |
| CCS(=O)(=O)CCSc1nc2ccccc2s1 | -9.56 |
| CCOc1cc(CN2CCCCCC2)ccc1OC | 12.4 |
| Cc1cc(C)n2nc(C(=O)Nc3nnc(C4CC4)s3)nc2n1 | 9.94 |
| O=C1CC(N2CCN(c3ccccc3)CC2)C(=O)N1c1cccc(Cl)c1 (stereo not drawn) | 10.3 |
| COc1ccccc1-c1cc(C(F)(F)F)nc(S(=O)(=O)CCCC(=O)NC(C)C)n1 | 7.65 |
| CCOCCCNC(=O)C(c1ccccc1)N(Cc1cccs1)C(=O)c1ccccc1O (stereo not drawn) | 17.5 |
| O=[N+]([O-])c1ccccc1/C=N/N1CCN(c2ccc(Cl)cc2)CC1 | 5.6 |
| O=C(c1cccc(N2C(=O)c3ccccc3C2=O)c1)N1CCCC(C(F)(F)F)C1 (stereo not drawn) | -9.97 |
| COc1ccc(-c2nc(-c3cccs3)c(-c3cccs3)[nH]2)cc1O | -3.8 |
| O=C(Cc1ccc(F)cc1)N/N=C/c1ccc2c(c1)OCO2 | 8.72 |
| Cc1ccc(S(=O)(=O)N(C)c2cc(S(N)(=O)=O)c(C)cc2C)cc1 | 6.07 |
| O=C(COc1ccccc1F)Nc1cc(S(=O)(=O)Nc2cccc(Cl)c2)ccc1O | 18.8 |
| COc1cc(CCC(=O)OCC(=O)Nc2ccc(C)cc2Cl)cc(OC)c1OC | 15.1 |
| O=C(Nc1ccc(-c2nc3ccccc3s2)cc1)c1cc(-n2cnnc2)ccc1Cl | 3.47 |
| O=C(COC(=O)COc1ccc2ccccc2c1)Nc1cc(C(F)(F)F)ccc1N1CCOCC1 | 15.9 |
| Cc1cc(C)c2[nH]c(=O)c(CN(Cc3ccco3)C(=S)NCC3CCCO3)cc2c1 (stereo not drawn) | 5.63 |
| CSc1ccc(C(=O)C2CCCN(S(=O)(=O)c3c(C)noc3C)C2)cc1 (stereo not drawn) | 6.97 |
| COc1ccc(NC(=O)C2CCN(S(=O)(=O)c3cn(C)nc3C)CC2)cc1 | -2.13 |
| COc1ccc(-c2nc3c(-c4ccc(Cl)cc4)cnn3cc2C)cc1F | 12.1 |
| COc1cc(C(=O)Nc2ccc(C)cc2)c2ccccc2n1 | 7.49 |
| O=C(CN(c1ccc(Cl)c(C(F)(F)F)c1)S(=O)(=O)c1ccccc1)N/N=C/c1cccc2c1OCCO2 | 18.3 |
| CN1C(=O)CC(c2ccco2)Sc2ccccc21 (stereo not drawn) | -3.05 |
| CC(C)CCn1c(O)c(N=Nc2ccccn2)c2ccccc21 | 13.5 |

| Compound | hERG current change (%, negative = inhibition) at 1uM [%] |
| --- | --- |
| COc1ccc(C(NC(=O)c2cccc(F)c2)c2ccccc2)cc1 (stereo not drawn) | 4.02 |
| COc1ccc(C(C(=O)NC2CCCCC2)N(Cc2cccs2)C(=O)Cc2c[nH]c3ccccc23)cc1 (stereo not drawn) | 11.9 |
| CC(=O)c1ccc(S(=O)(=O)N2CCN(C)CC2)cc1 | 10.8 |
| Cc1ccccc1C(=O)N1CCC(C(=O)O)CC1 | -1.25 |
| COc1cc(S(=O)(=O)NCCN2CCOCC2)ccc1-n1cnnn1 | 17 |
| CCN1C(=NCC(C)C)N[C@@H](c2cccc(C(F)(F)F)c2)C(C(=O)OC)=C1C | -3.54 |
| CC(C)COc1ccc(CNC(=S)NCc2ccccc2)cc1 | 12.7 |
| COC(=O)c1ccccc1NC(=O)C12CCC(C)(C(=O)O1)C2(C)C (stereo not drawn) | 11.1 |
| Cc1cc(NS(=O)(=O)c2ccc(NC(=S)NC(=O)c3ccncc3)cc2)no1 | 14.6 |
| c1ccc2c(C3=NNC(=NC4CC4)SC3)c[nH]c2c1 | 3.46 |
| Cc1ccc(NC(=S)Nc2cccc3cnccc23)cc1C | 7.99 |
| CCN(CC)S(=O)(=O)c1ccc(N2CCCC2)c(NS(=O)(=O)c2ccc([N+](=O)[O-])cc2)c1 | 1.4 |
| CCNC(=O)CN(c1ccc(C)cc1)S(=O)(=O)c1ccccc1 | 15.4 |
| O=[n+]1cc(-c2ccccc2)n([O-])c2c1CCC2 | 15.8 |
| O=C1OCCN1c1c(-c2ccccc2)c(N2CCOCC2)nc2ccccc12 | 4.87 |
| O=C(NNC1=NC2(CCCC2)Cc2ccccc21)c1ccncc1 | 11 |
| CC(CCc1ccccc1)NC(=O)c1ccccc1Cl (stereo not drawn) | 3.23 |
| C/C(=N\NC(=O)c1c(C)nc2ccccn12)c1ccco1 | -13.8 |
| C=CCOc1cccc(C2NC(=O)c3ccccc3O2)c1 (stereo not drawn) | 16 |
| O=C(NCc1ccco1)c1csc2c1CCCCC2 | 9.95 |
| O=C(CSc1nc(-c2ccco2)cc(C(F)(F)F)n1)NC1CCCC1 | 3.67 |
| COCCCNC(=O)CN(c1cc(OC)ccc1OC)S(=O)(=O)c1ccccc1 | 11.5 |
| CN(C(=O)c1nn(C)c2c1CSc1ccccc1-2)c1ccccc1Cl | 4.2 |

| Compound | hERG current change (%, negative = inhibition) at 1uM [%] |
| --- | --- |
| CN(/N=C/c1cccnc1)c1cnc2ccccc2n1 | 5.07 |
| CC(C)(C)NC(=S)N/N=C/c1cc(Br)c(O)c(Br)c1 | 18.4 |
| Cn1nc(CC(=O)NCc2cccc3ccccc23)c2ccccc2c1=O | 11.6 |
| Cc1ccc[n+](CC(=O)c2ccc(-c3ccccc3)cc2)c1.[Br-] | -22.5 |
| CC(O)C(=O)O.Cc1ccc(CN(CC(O)COc2cccc3[nH]cc(C)c23)C(C)(C)C)cc1 (stereo not drawn) | -23.6 |
| O=C(CCc1[nH]c2ccccc2c1Sc1ccccc1)N(CCO)CCO | 5.76 |
| Cc1ccc(S(=O)(=O)N(C)C)cc1NC(=O)CN1C(=O)NC2(CCCCCC2)C1=O | 8.1 |
| C(=N\Nc1nc(Nc2ccccc2)nc(Nc2ccccc2)n1)/c1ccncc1 | 4.7 |
| O=C(O)CC1SC(N/N=C/c2ccc(Br)cc2)NC1=O (stereo not drawn) | 8.66 |
| COc1ccc(OC(=O)CCCN2C(=O)c3ccccc3C2=O)cc1 | 0.666 |
| COc1ccccc1NC(=O)c1csc(-n2nc(C)cc2C(F)(F)F)n1 | 7.24 |
| CC(=O)c1cc(C#N)c(N2CCOCC2)nc1C | 13.8 |
| Cc1ccc(N(C(=O)C2COc3ccccc3O2)C(C(=O)NC2CCCCC2)c2cn(C)nc2C)cc1 (stereo not drawn) | 11.2 |
| COc1ccc(C(=O)/C=C2\NCC3c4ccccc4CCN3C2=O)cc1 (stereo not drawn) | 8.26 |
| CCN(CC)CCN(C(=O)c1ccc2ccccc2c1)c1nc2ccc(OC)cc2s1.Cl | 1.06 |
| COc1ccc(Br)cc1CN(C)CC(=O)NCCc1ccccc1.O=C(O)C(=O)O | 10.6 |
| NC(=O)CC1(CC(=O)O)CCCCC1 | 9.72 |
| COCc1[nH]nc2c1C(c1ccc(OC)c(OC)c1)C(C#N)=C(N)O2 (stereo not drawn) | 10.6 |
| Cc1cccc(C(=O)NCC(=O)NCC(c2cccs2)N2CCOCC2)c1 (stereo not drawn) | 5.91 |
| CCOc1ccc(C(=O)Cc2cc3cccc(OC)c3oc2=O)cc1 | 17.4 |
| CC1(C(=O)NNC(=O)c2cccc([N+](=O)[O-])c2)CC1(Br)Br (stereo not drawn) | 16.3 |

Source: paper PMC4336329 (PLoS ONE, 2015)
